Several values for one entry are separate records, joined by “and”; a condition that tells them apart may be missing. Equal entries are not always repeated. About 16,000 (7.3%) of roughly 220,000 compounds were called active. Inconclusive means that the source gave no clear call. Such entries were picked first, then a sample of the others. The call rests on the fitted dose curve; in most records, active means well fitted inhibition curve with a large enough effect (not every such curve was filed as active); inconclusive means small, poorly fitted or top-dose-only effect, or another doubt; inactive means no such curve, though single readings can be large or run the other way. A potency beside an inconclusive call is a rough fit, not a confirmed value.
Target: Aldehyde dehydrogenase 1A1 (Homo sapiens) (UniProt P00352)
Assay: qHTS Assay for Inhibitors of Aldehyde Dehydrogenase 1 (ALDH1A1);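 on activity, negative = inhibition: plate controls were no enzyme wells and a reference inhibitor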
Conditions: Purified ALDH1A1, NADH fluorescence, propionaldehyde substrate; series mostly up to 75.3 µM; activity, negative = inhibition: at the top concentration
Potency means the concentration at half of the fitted maximal effect; tags describe the fitted curve by direction and shape.

Sequence of UniProt P00352 (P00352 whole entry, looked up): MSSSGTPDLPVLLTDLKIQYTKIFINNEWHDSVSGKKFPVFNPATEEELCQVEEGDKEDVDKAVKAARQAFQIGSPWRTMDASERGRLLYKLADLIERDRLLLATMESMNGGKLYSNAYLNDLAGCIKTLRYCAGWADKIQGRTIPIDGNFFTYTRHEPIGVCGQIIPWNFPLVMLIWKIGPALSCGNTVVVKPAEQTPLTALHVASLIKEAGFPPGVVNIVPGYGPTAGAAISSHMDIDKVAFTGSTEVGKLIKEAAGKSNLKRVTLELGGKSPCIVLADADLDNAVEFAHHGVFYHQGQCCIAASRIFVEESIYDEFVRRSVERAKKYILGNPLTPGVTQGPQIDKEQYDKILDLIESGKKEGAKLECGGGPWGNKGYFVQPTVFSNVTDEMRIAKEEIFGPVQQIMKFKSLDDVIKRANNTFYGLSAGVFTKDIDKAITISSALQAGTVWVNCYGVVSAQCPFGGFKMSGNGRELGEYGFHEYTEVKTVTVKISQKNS

SMILES	Potency	activity, negative = inhibition
COc1ccc(/C=N/n2cc(-c3ccc(OC)cc3)nc2N)cc1	inconclusive: 20 µM [inhibitor, single point]	–
Cc1ccccc1C(=O)NNC(=O)C(C)N1C(=O)c2ccccc2C1=O (configuration not stated)	inconclusive: 35.5 µM [inhibitor, single point]	–
Clc1ccc(C[n+]2csc3ccccc32)cc1	active: 2.82 µM	–
COC(=O)c1ccc(NC(=O)CN2CCN(S(=O)(=O)c3cc(Cl)ccc3OC)CC2)cc1	active: 2 µM	–
COc1cc(OC)c(OC)cc1/C=N/n1c(C)nnc1C	inconclusive: 39.8 µM [inhibitor, partial curve]	–
O=C(C1CCCC1)N1CCC(CO)(Cc2ccccc2Cl)CC1	inconclusive: 25.1 µM [inhibitor, single point]	–
Cc1nc2ccc(NC(=O)c3ccc(Cl)c([N+](=O)[O-])c3)cc2s1	–	inactive: 5.15%
O=C(C1=C[C@@H](c2ccc(C(F)(F)F)cc2)C[C@@H](OCc2ccc(CO)cc2)O1)N1CCN(Cc2ccc3c(c2)OCO3)CC1	active: 12.6 µM	–
O=C(CSc1ccc(-c2ccco2)nn1)NCc1ccccc1	inconclusive: 17.8 µM [inhibitor, partial curve]	–
NC1=NC(c2cn(-c3ccccc3)nc2-c2cccs2)n2c(nc3ccccc32)N1 (configuration not stated)	–	inactive: -7.95%
CCCCOc1ccc(C(=O)N/C(=C/c2cccc([N+](=O)[O-])c2)C(=O)O)cc1	active: 11.2 µM	–
Cc1cc(O)c(C(C)C)cc1NS(=O)(=O)c1ccccc1	active: 14.1 µM	–
CCc1nnc(NC(=O)C2CCN(c3nc(C)cc(C)n3)CC2)s1	–	inactive: 1.72%
Cn1c(C(=O)NCCN2CCCCCC2)cc2c(=O)n(C)c3ccccc3c21	inconclusive: 25.1 µM [inhibitor, partial curve]	–
Cn1c2ccccc2n2c(=O)cc(-c3ccccc3)c(C#N)c12	inconclusive: 37.7 µM [inhibitor, single point]	–
CCOC(=O)C1CCCN(Cc2cccs2)C1 (configuration not stated)	inconclusive: 39.8 µM [inhibitor, single point]	–
Cc1nn(CCc2nn[nH]n2)c2nc(-c3ccc(Br)cc3)cc(C(F)(F)F)c12	inconclusive: 20 µM [inhibitor, partial curve]	–
O=C1Nc2ccccc2N(O)N1c1ccc(S(=O)(=O)N2CCCCCC2)cc1	–	inactive: 1.83%
O=C(CCS(=O)(=O)c1ccc(Cl)cc1)NCCc1c[nH]c2ccccc12	active: 28.2 µM	–
C/C(=N\Nc1ccc(S(=O)(=O)N2CCOCC2)cc1[N+](=O)[O-])C(C)C	active: 17.8 µM	–
COCCn1c(CN(Cc2ccccc2)Cc2ccccc2)nc2c1c(=O)n(C)c(=O)n2C	–	inactive: -31.3%
CCS(=O)(=O)N1CCN(c2ccccn2)CC1	inconclusive: 35.5 µM [inhibitor, single point]	–
COc1ccccc1-n1c(=S)sc2c(=O)n(Cc3ccco3)c(SC)nc21	active: 20 µM	–
Cc1cccc(N2CCN(C(=O)Cn3sc4nc(C)cc(C)c4c3=O)CC2C)c1 (configuration not stated)	active: 3.55 µM	–

SMILES	Potency	activity, negative = inhibition
CCn1c(=S)[nH]c2ccccc21	inconclusive: 35.5 µM [inhibitor, single point]	–
O=C(/C=C/c1ccccc1)NCCCNC(=O)/C=C/c1ccccc1	–	inactive: -4.1%
O=C(OCC1COc2ccccc2O1)c1ccccc1F (configuration not stated)	–	inactive: -5.68%
O=C(NC1CCCCC1)C(c1ccncc1)N(Cc1ccccc1)C(=O)c1ccc(-c2ccccc2)[nH]1 (configuration not stated)	active: 22.4 µM	–
Fc1ccccc1/C=N/NC(=S)Nc1ccc(Cl)cc1Cl	–	inactive: -5.02%
Cc1ccc(C)c(S(=O)(=O)c2c(N)n(/N=C/c3ccco3)c3nc4ccccc4nc23)c1	inconclusive: 14.1 µM [inhibitor, partial curve]	–
O=S(=O)(c1ccccc1)N1CCC2(CC1)CN(c1ncccn1)C2	inconclusive: 39.8 µM [inhibitor, single point]	–
O=C(O)c1ccccc1OP(=O)(O)O	inactive and inconclusive: 37.7 µM [inhibitor, single point]	–
Cc1ccc(CNC(=O)C2CC(=O)N(C3CCCCCC3)C2)cc1 (configuration not stated)	inconclusive: 39.8 µM [inhibitor, single point]	–
CC1CCC/C(=C\Nc2ccc(O)cc2)C1=O (configuration not stated)	active: 8.91 µM	–
O=C1CCCC2=C1C(c1ccco1)Nc1ccc3ccccc3c12 (configuration not stated)	inconclusive: 31.6 µM [inhibitor, partial curve]	–
Cc1cc(NC(=O)CSc2nc3ccccc3n2CC(C)C)no1	–	inactive: 2.17%
CC(=O)N/C(=C/c1ccc(OS(=O)(=O)c2ccc(C)cc2)cc1)C(=O)NCCCO	active: 2.24 µM	–
COc1cccc(C2C3=C(CC(C)(C)CC3=O)Nc3cc(OC)c(OC)cc32)c1 (configuration not stated)	inconclusive: 39.8 µM [inhibitor, single point]	–
CCn1c(C)cc2c(c1=O)C(c1ccccc1Br)C(C#N)=C(N)O2 (configuration not stated)	inconclusive: 39.8 µM [inhibitor, single point]	–
COc1ccc(/C=C/C(=O)OCC(=O)c2c(C)[nH]c3ccccc23)cc1OC	inconclusive: 39.8 µM [inhibitor, single point]	–
Cc1cccc(N(C(=O)c2snc(C(N)=O)c2N)C(C(=O)NCC2CCCO2)c2cccs2)c1 (configuration not stated)	inconclusive: 28.2 µM [inhibitor, partial curve]	–
CC(C)N(CC#CCC1(O)c2ccccc2-c2ccccc21)CCO	active: 20 µM	–
O=C1C(=O)N(CCOCCO)C(c2ccccn2)/C1=C(\O)c1ccccc1 (configuration not stated)	inconclusive: 31.6 µM [inhibitor, single point]	–
COc1ccc(COC(=O)N/N=C2/C[C@@H](O)[C@@H](O)[C@@H]3[C@@H]4C(=O)N(C(C)(C)C)C(=O)[C@H]4CC[C@H]23)cc1	–	inactive: 2.21% [at 13.5 µM]
Cc1noc(C)c1S(=O)(=O)N1CCC(C(=O)c2ccccc2)CC1	–	inactive: 4.77%
Fc1ccc(/C=C2\CCCC3=C2Nc2ncnn2C3c2ccc(F)cc2)cc1 (configuration not stated)	inconclusive: 39.8 µM [inhibitor, single point]	–
COc1ccc(CNC(=S)N/N=C/c2ccc(OC)c(OC)c2)cc1	inconclusive: 31.6 µM [inhibitor, partial curve]	–

Reference: PubChem BioAssay AID1030 (National Center for Advancing Translational Sciences (NCATS), 2008)
